# About 220 (0.56%) of roughly 39,000 compounds showed activity. The list shows a part of the results.
# System: Escherichia coli K-12 BW25113
# Assay: relative growth (OD600 normalised to plate interquartile mean) (fraction); higher = less growth inhibition, active = 0.2 or less
# Details: 50 µM; LB; incubation time: overnight (16-24 h)
# 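Note: static incubation at 37 °C against the wild-type strain, values averaged over two biological replicates.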
row,SMILES,relative growth
1,C=CCNS(=O)(=O)c1cccc2nonc12,inactive: 0.97
2,CCCCCC(C)N.O=S(=O)(O)O (stereo not drawn),inactive: 1.02
3,C[C@H]1O[C@@H](O[C@H]2[C@@H](O)C[C@H](O[C@H]3[C@@H](O)C[C@H](O[C@H]4CC[C@@]5(C)[C@H](CC[C@@H]6[C@@H]5C[C@@H](O)[C@@]5(C)[C@@H](C7=CC(=O)OC7)CC[C@]65O)C4)O[C@@H]3C)O[C@@H]2C)C[C@H](O)[C@@H]1O,inactive: 1.01
4,C[C@@H]1CN([C@@H](C)CO)C(=O)c2cc(NC(=O)Nc3ccc(F)cc3)ccc2O[C@H]1CN(C)Cc1ccc(-c2ccccc2)cc1,inactive: 0.986
5,C[C@@H]1CCCCO[C@H](CN(C)C(=O)Nc2ccc3c(c2)OCO3)[C@H](C)CN([C@H](C)CO)C(=O)c2cc(NC(=O)C3CCCCC3)ccc2O1,inactive: 1
6,C[C@H](CO)N1C[C@H](C)[C@@H](CN(C)C(=O)NC2CCCCC2)Oc2ccc(NC(=O)CCN3CCOCC3)cc2C1=O,inactive: 1.02
7,Cc1cc(=O)c(C(=O)N[C@@H](C(=O)N[C@@H]2C(=O)N3C(C(=O)O)=C(CSc4nnnn4C)CS[C@H]23)c2ccc(O)cc2)c[nH]1,active: 0.0389
8,CN1CCN(C(=O)C[C@@H]2CC[C@H]3[C@@H](COC[C@H](O)CN3C(=O)Nc3ccc4c(c3)OCO4)O2)CC1,inactive: 0.994
9,C[C@@H]1CN([C@H](C)CO)C(=O)c2cc(/C=C/c3ccccc3)cnc2O[C@H]1CN(C)C(=O)c1cnccn1,inactive: 1
10,C[C@H](CO)N1C[C@H](C)[C@@H](CN(C)C(=O)NC2CCCCC2)OCCCC[C@H](C)Oc2ccc(NC(=O)CCC(F)(F)F)cc2C1=O,inactive: 0.978
11,C[C@H](O)C#Cc1ccc2c(c1)O[C@H](CN(C)C(=O)CN(C)C)[C@@H](C)CN([C@H](C)CO)S2(=O)=O,inactive: 0.933
12,Cc1cc(C(F)(F)F)cc(Cl)n1,inactive: 0.988
13,C[C@@H]1CN([C@H](C)CO)C(=O)c2cc(NS(=O)(=O)c3ccc(Cl)cc3)ccc2O[C@H]1CN(C)Cc1ccc(C(F)(F)F)cc1,inactive: 1.05
14,CCc1nc2ccc(C(=O)N3CCN(S(=O)(=O)CC)CC3)cn2c1N(CCC(C)C)CCN(C)C,inactive: 0.994
15,CC(=O)OC1CC2CCC1(C)C2(C)C (stereo not drawn),inactive: 0.978
16,C[C@H](O)C#Cc1ccc2c(c1)O[C@@H](CN(C)C(=O)c1ccncc1)[C@@H](C)CN([C@@H](C)CO)S2(=O)=O,inactive: 0.968
17,C[C@H](CO)N1C[C@H](C)[C@@H](CN(C)Cc2ccc(-c3ccccc3)cc2)Oc2ccc(NS(=O)(=O)c3ccc(F)cc3)cc2C1=O,inactive: 1.04
18,COc1ccc(S(=O)(=O)Nc2ccc3c(c2)CC(=O)N([C@H](C)CO)C[C@H](C)[C@@H](CN(C)Cc2ccc(C(=O)O)cc2)O3)cc1,inactive: 0.997
19,CCCN1C[C@H](C)[C@H](OC)CN(C)C(=O)c2cc(NS(=O)(=O)c3cn(C)cn3)ccc2OC[C@@H]1C,inactive: 0.972

row,SMILES,relative growth
1,C[C@@H]1CN([C@H](C)CO)C(=O)c2cc(C3=CCCC3)cnc2O[C@@H]1CN(C)C(=O)c1ccc2c(c1)OCO2,inactive: 1
2,C[C@H]1CN([C@@H](C)CO)S(=O)(=O)c2ccc(C#Cc3ccccc3)cc2O[C@H]1CN(C)C(=O)c1ccccn1,inactive: 1.03
3,C[C@@H]1CN([C@@H](C)CO)C(=O)Cc2cc(NC(=O)Nc3ccc4c(c3)OCO4)ccc2O[C@H]1CN(C)Cc1ccc(Cl)c(Cl)c1,inactive: 1.03
4,Cc1ccc(S(=O)(=O)Nc2ccc3c(c2)C(=O)N([C@@H](C)CO)C[C@H](C)[C@@H](CN(C)Cc2ccc(Oc4ccccc4)cc2)O3)cc1,inactive: 0.947
5,Cn1cnc(CCNC(=O)C[C@H]2CC[C@@H]3[C@H](COC[C@H](O)CN3C(=O)C3CC3)O2)c1,inactive: 0.959
6,CO[C@H]1CN(C)C(=O)c2cc(NS(C)(=O)=O)ccc2OC[C@H](C)N(C(=O)C2CCOCC2)C[C@H]1C,inactive: 0.982
7,C[C@@H]1CCCCO[C@H](CN(C)C(=O)CCC(F)(F)F)[C@H](C)CN([C@@H](C)CO)C(=O)c2cc(NC(=O)Nc3ccc4c(c3)OCO4)ccc2O1,inactive: 0.984
8,C[C@@H]1CCCCO[C@@H](CN(C)Cc2ccc(Cl)c(Cl)c2)[C@H](C)CN([C@H](C)CO)C(=O)c2cc(NC(=O)c3ccccc3)ccc2O1,inactive: 1
9,Cc1noc(C)c1NC(=O)Nc1ccc2c(c1)CC(=O)N([C@H](C)CO)C[C@H](C)[C@H](CN(C)S(=O)(=O)c1ccccc1)O2,inactive: 1.05
10,O=C1O[C@@H](c2ccccc2)[C@@H](c2ccccc2)N2[C@@H](c3ccc(O)cc3)[C@]3(C(=O)Nc4ccc(C#CCCO)cc43)[C@@H](C(=O)NC[C@H](O)c3ccccc3)[C@H]12,inactive: 1.02
11,CC(C)(C)C#CC(=O)C#CC(C)(C)C,inactive: 1.01
12,Cc1ccc(S(=O)(=O)N(C)C[C@@H]2OCCCC[C@@H](C)Oc3ccc(NC(=O)Nc4ccc(F)cc4)cc3C(=O)N([C@@H](C)CO)C[C@@H]2C)cc1,inactive: 1.01
13,C[C@@H]1CN([C@@H](C)CO)C(=O)c2cc(C#CCc3ccccc3)cnc2O[C@H]1CN(C)C(=O)Cc1cccnc1,inactive: 0.981
14,C[C@H](CO)N1C[C@H](C)[C@@H](CN(C)Cc2ccccc2)Oc2ccc(NC(=O)CCCN(C)C)cc2C1=O,inactive: 1.02
15,CO[C@@H]1CN(C)C(=O)c2cc(NS(C)(=O)=O)ccc2OC[C@H](C)N(C(=O)CN(C)C)C[C@@H]1C,inactive: 1.02
16,C[C@H](CO)N1C[C@H](C)[C@H](CN(C)S(=O)(=O)c2cn(C)cn2)Oc2c(NC(=O)c3ccncc3)cccc2C1=O,inactive: 1.02
17,CCS(=O)(=O)N1CCOC[C@]2(CC[C@@H](Cn3cncn3)O2)C1,inactive: 1.02
18,C[C@H](CO)N1C[C@H](C)[C@H](CN(C)C(=O)C2CC2)OCc2cn(nn2)CCCC1=O,inactive: 1.01
19,C[C@@H]1CN([C@@H](C)CO)C(=O)Cc2cc(NS(C)(=O)=O)ccc2O[C@@H]1CN(C)C,inactive: 0.875

# From the supplement of paper PMC9446081
